The text below walks through data of article PMC4782136 (Scientific Reports, 2016).

In the assay the test system is influenza A/Puerto Rico/8/34 (H1N1). In words: microbe, parasite or virus in culture. The note with it: H1N1, read-out: IC50 ± SD, H1N1.

What is called IC50 is the midpoint of a concentration-inhibition curve. With `NC(=O)c1ncn([C@@H]2O[C@H](CO)[C@@H](O)[C@H]2O)n1` [Ribavirin, ribavirin], the IC50 amounted to 12.85 ± 0.08 µM.
